# Test results taken from the supplement of paper PMC6206098.
# ± gives the uncertainty stated by the source. The sequences are guide strands of siRNAs; only the seed at positions 2 to 7 varies.
# Legend:
# 3LL = test: cell viability relative to siNT1 control; higher = less toxic; settings: concentration: 10 nM; 96 h; Mus musculus;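 also: Luminescence-based viability of cells reverse transfected in 384-well plates with lipid-complexed siRNAs built on a non-toxic 19mer backbone whose passenger strand carries 2′-O-methyl groups at positions 1 and 2, triplicates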
# H460 = test: cell viability relative to lipid-only control; HeyA8 human ovarian and H460 human lung cancer; M565 mouse liver and 3LL mouse lung cancer; siNT1 is a non-toxic control siRNA; higher = less toxic; settings: concentration: 10 nM; 96 h; Homo sapiens
# Procedure: (§1)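 Arrayed screen of 4096 siRNA duplexes, each carrying one of all possible 6mer seeds at guide-strand positions 2-7 in a fixed neutral 19mer scaffold (constant flanks: U at position 1, then ACAUGUAAACCA, plus a 3' AA overhang). The passenger strand is 2'-O-methylated at positions 1-2 so only the guide strand loads into RISC. Duplexes were reverse-transfected at 10 nM with RNAiMAX in triplicate in 384-well plates; viability was read by CellTiter-Glo ATP content 96 h after transfection. Values are % viability normalised to lipid-only wells (HeyA8, H460, M565) or to siNT1 (3LL).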
# HeyA8 = test: as above; settings: concentration: 10 nM; 96 h; Homo sapiens
# Procedure: as §1
# M565 = test: as above; settings: concentration: 10 nM; 96 h; Mus musculus
# Procedure: as §1
# 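For cell viability relative to lipid-only control in this document: reverse lipid transfection in 384-well plates, in triplicate, of duplexes on a non-toxic 19mer backbone with passenger strand 2′-O-methylated at positions 1 and 2, luminescence viability read-out.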
Sequence,cell viability (3LL) [%],cell viability (H460) [%],cell viability (HeyA8) [%],cell viability (M565) [%]
UAUUAAAACAUGUAAACCAAA,111 ± 20,96.6 ± 10,97.9 ± 14,95.6 ± 6.9
UGAAGCAACAUGUAAACCAAA,65.4 ± 8.6,60.1 ± 14,77.4 ± 2.7,37.3 ± 2.2
UAUCGUUACAUGUAAACCAAA,115 ± 16,108 ± 7.5,97.6 ± 2.4,63.7 ± 11
UUCCAUCACAUGUAAACCAAA,63.6 ± 2.8,43.2 ± 5.4,20.6 ± 2.3,37.9 ± 2.6
UCUUGGCACAUGUAAACCAAA,27.5 ± 3.1,44.4 ± 3,8.41 ± 1.3,9.69 ± 2
UGCAUAAACAUGUAAACCAAA,86.7 ± 12,97.8 ± 2.3,81.2 ± 4.3,77.4 ± 3.9
UCGGGUCACAUGUAAACCAAA,21.3 ± 2.3,14 ± 1.9,4.22 ± 0.4,16.9 ± 1.6
UAUCGACACAUGUAAACCAAA,115 ± 14,91.9 ± 4.3,92.3 ± 2.6,75.6 ± 8.4
UUCUAUAACAUGUAAACCAAA,97 ± 9.1,64.6 ± 7.3,97.5 ± 2.3,81.6 ± 12
UUUCCAAACAUGUAAACCAAA,97.8 ± 3,76.2 ± 8.5,106 ± 3.2,85.3 ± 13
UGUGCGGACAUGUAAACCAAA,62 ± 12,58.2 ± 8.4,19.3 ± 2.7,20.4 ± 1.8
UGGUUUGACAUGUAAACCAAA,90.3 ± 9.7,87 ± 28,78 ± 6.9,69.5 ± 8.6
UUAUGAUACAUGUAAACCAAA,72.5 ± 4,60.7 ± 1.5,58.3 ± 6.7,55.6 ± 3.9
UGGAUUGACAUGUAAACCAAA,95.5 ± 11,61.9 ± 8.6,70.2 ± 4.9,40.1 ± 7.9
UCAGAAAACAUGUAAACCAAA,90.4 ± 12,54.2 ± 3.2,79.7 ± 8.8,66 ± 10
UAAAAGGACAUGUAAACCAAA,109 ± 20,70.5 ± 3.2,85.4 ± 6.9,64.8 ± 21
UGUGUCGACAUGUAAACCAAA,29.3 ± 6.4,49.6 ± 5.4,43.8 ± 5.6,50.3 ± 10
UACCAUUACAUGUAAACCAAA,78.4 ± 14,56.1 ± 6.1,89.2 ± 8.7,34.4 ± 3.6
UGAUCUCACAUGUAAACCAAA,82.7 ± 9,41.8 ± 3.2,40.4 ± 3.1,29 ± 7.4

Sequence,cell viability (3LL) [%],cell viability (H460) [%],cell viability (HeyA8) [%],cell viability (M565) [%]
UGAAACCACAUGUAAACCAAA,50.1 ± 13,36.2 ± 2.1,12 ± 0.89,28 ± 1.9
UCAGAGAACAUGUAAACCAAA,96.3 ± 14,42.7 ± 4.1,76.9 ± 7.3,44.3 ± 2
UGGAAGAACAUGUAAACCAAA,82.4 ± 4.9,53.7 ± 7.8,62.5 ± 2,18.8 ± 3.3
UUUUGCAACAUGUAAACCAAA,100 ± 5.4,65.7 ± 10,92.8 ± 9.3,92.8 ± 8.2
UGUGGUGACAUGUAAACCAAA,8.09 ± 3.1,16.7 ± 1.3,23.6 ± 2.1,35.2 ± 3.1
UUGUCGUACAUGUAAACCAAA,44.1 ± 1,62.8 ± 4.8,79.8 ± 2.8,45 ± 7
UCAACCAACAUGUAAACCAAA,91.8 ± 14,57.7 ± 7.3,87.1 ± 4.1,51.7 ± 7
UCAUUACACAUGUAAACCAAA,91.1 ± 13,33.4 ± 1.1,46.7 ± 2.2,48 ± 14
UGUGUGCACAUGUAAACCAAA,16.7 ± 5.7,25.1 ± 1,11.7 ± 0.26,23.1 ± 6.5
UAUACAGACAUGUAAACCAAA,111 ± 12,71.7 ± 8.5,100 ± 5.2,107 ± 17
UAACCAUACAUGUAAACCAAA,73.5 ± 7.3,63.3 ± 7.9,78.5 ± 1.3,45.5 ± 5.4
UCCGCGGACAUGUAAACCAAA,93.3 ± 16,71.2 ± 16,63.2 ± 8.9,70.2 ± 19
UUCGCAAACAUGUAAACCAAA,104 ± 8.4,85.3 ± 24,89.5 ± 9.1,101 ± 3.9
UACAUACACAUGUAAACCAAA,64.3 ± 13,55.9 ± 3.3,43.7 ± 3.7,70.9 ± 7.2
UGUUAAAACAUGUAAACCAAA,95.5 ± 4,61.9 ± 3.5,85.1 ± 13,63 ± 8.1
UGAAGUAACAUGUAAACCAAA,100 ± 13,71.2 ± 8.7,82.8 ± 5.7,56.9 ± 4.3
UGUUGGUACAUGUAAACCAAA,24 ± 10,45.2 ± 5,39.5 ± 0.85,7.05 ± 0.31
UAGGACGACAUGUAAACCAAA,76.7 ± 7.3,82.2 ± 4.8,76.8 ± 14,61.8 ± 10
UAGUGCGACAUGUAAACCAAA,80.9 ± 9.9,70.3 ± 1.9,90.6 ± 17,81.4 ± 4.1

Sequence,cell viability (3LL) [%],cell viability (H460) [%],cell viability (HeyA8) [%],cell viability (M565) [%]
UAGCGACACAUGUAAACCAAA,67 ± 2.7,63.4 ± 6.2,24.3 ± 9,60.8 ± 7.8
UCAUUCAACAUGUAAACCAAA,91.6 ± 13,62 ± 0.91,70.8 ± 2.1,58.8 ± 23
UUAUACCACAUGUAAACCAAA,6.2 ± 1.1,47.1 ± 2.7,62.9 ± 3.4,46.4 ± 16
UCCCGUAACAUGUAAACCAAA,104 ± 22,97.1 ± 22,85.3 ± 6.7,74.9 ± 5.9
UCAAUUUACAUGUAAACCAAA,90.8 ± 12,59.9 ± 0.61,85.2 ± 4.2,72.6 ± 5.3
UGUAGUAACAUGUAAACCAAA,88.5 ± 2.3,78 ± 4.5,11.7 ± 2.8,61.1 ± 5.3
UCGACACACAUGUAAACCAAA,90.7 ± 18,82.1 ± 7.8,78.4 ± 4.8,67.2 ± 11
UAACGGCACAUGUAAACCAAA,41.6 ± 5.3,42.6 ± 9.3,32.7 ± 1.5,50.9 ± 9.4
UAGAGUUACAUGUAAACCAAA,74.9 ± 6,89 ± 22,63.8 ± 1.9,57 ± 3.5
UCGAACUACAUGUAAACCAAA,80.6 ± 16,76.6 ± 17,62.4 ± 6.4,77.4 ± 2.2
UAGCCUCACAUGUAAACCAAA,15.8 ± 7.8,59.3 ± 2.5,34.7 ± 4.7,7.76 ± 3.1
UCUCUGUACAUGUAAACCAAA,67.7 ± 4.9,39.3 ± 4.2,59.1 ± 3.3,20.7 ± 3.3
UCUGUCGACAUGUAAACCAAA,103 ± 17,49.5 ± 2.7,78.5 ± 7,68.9 ± 3.6
UGCAGUUACAUGUAAACCAAA,61.1 ± 16,60.6 ± 3.4,64.6 ± 7,41.3 ± 5.3
UCGGUGCACAUGUAAACCAAA,25.2 ± 3.4,19 ± 1.8,15.6 ± 1.2,18.7 ± 0.8
UCAUCCAACAUGUAAACCAAA,79.9 ± 14,47.7 ± 8.9,26.1 ± 1.4,57.6 ± 8.1
UUCAAAGACAUGUAAACCAAA,101 ± 10,60.9 ± 2.5,96.8 ± 9.6,101 ± 7.8
UCUAUUCACAUGUAAACCAAA,96.1 ± 17,53.5 ± 3,79.1 ± 4.6,71.8 ± 15
UGUGACCACAUGUAAACCAAA,27.4 ± 4.5,24 ± 6.5,27.6 ± 1.6,19.2 ± 3.4
